Laboratory results reported in article PMC5892938.
This is one part of the list. The source does not settle which construct or isoform was used.

The sequences below were run against GST-SBP-ILF3 (Homo sapiens) (UniProt Q12906) (assay: targeted RNA Bind-n-Seq). Conditions: RBNS binding buffer: 25 mM Tris pH 7.5, 150 mM KCl, 3 mM MgCl2, 0.1% Tween, 0.5 mg/mL BSA, 1 mM DTT; 27 nM protein, 750 pM RNA pool; temperature not stated; high values mean tight binding; sequences stand for … in GGGUAAAAGCGAGGUGAA…CGGGACAAGUAUUAUGGG.

Sequence | binding signal (log2 fold change)
UUUUUUUUUUGAGACGGUUCCCGUCUCCUA [tttttgagapaired] | 0.795
GUUGUGUGUGUUGGCUCCUAACACACACGA [gtspaired] | -0.0721
GUGUGUGGUGUUGGACCCUAACACCAUACG [gtspaired] | -0.438
UUUUUUUUUUGAGACGGGAGCCGUUUCCUG [tttttgagapaired] | 0.662
UUUUUUUUUUGAGACUGGCACAGUCUCCGG [tttttgagapaired] | 0.404
UUUUUUUUUUGAGACCGGGGCGGUCUCCUG [tttttgagapaired] | 0.478
GGUGUGUGUGUUGGCCUCUAACACACAUAC [gtspaired] | -0.521
GGUUGGUGUGUUGGAAUCUAACACAUCGAC [gtspaired] | -0.606
UUUUUUUUUUGAGACGGGGGCCGUCUUCUA [tttttgagapaired] | 0.806
GGUGGUUGUGUUGGAGCCUAACACAACUAC [gtspaired] | -0.362
UUUUUUUUUUGAGAUGGGUUCCAUCUCCUA [tttttgagapaired] | 0.121
UUUUUUUUUUGAGAGGGGGGCCCUUUCCAG [tttttgagapaired] | 0.85
UUUUUUUUUUGAGAGGGCAUCCCUCUCCGG [tttttgagapaired] | 0.628
UUUUUUUUUUGAGACGGCGACCGUUUCCGG [tttttgagapaired] | 0.724
GUGUGGUGUGUUGGAUUCUAACACAUCACG [gtspaired] | -0.855
UUUUUUUUUUGAGAGGGGUGCCCUCUCCUG [tttttgagapaired] | 0.765
GUGUGUGGUGUUGGCUUCUAACACCAUACA [gtspaired] | -0.117
GUGUGUUGUGUUGGAAUCUAACACAGCACA [gtspaired] | -0.356
UUUUUUUUUUGAGACUGCAUCAGUUUCCAG [tttttgagapaired] | 0.0115
UUUUUUUUUUGAGAGCGGAACGCUCUUCUG [tttttgagapaired] | 0.151
UUUUUUUUUUGAGACUGACACAGUUUCCUA [tttttgagapaired] | 0.144
UUUUUUUUUUGAGACGGAUACCGUUUCCUG [tttttgagapaired] | 0.547
GUGUUGUGUGUUGGAGCCUAACACACAGCG [gtspaired] | -0.531
UUUUUUUUUUGAGAUCGGAUCGAUCUCCAG [tttttgagapaired] | 0.17
UUUUUUUUUUGAGACUGUUUCAGUCUUCUA [tttttgagapaired] | -0.114
GUGGUGUGUGUUGGAAUCUAACACAUACCG [gtspaired] | -0.58

Sequence | binding signal (log2 fold change)
GGUUGUUGUGUUGGAGUCUAACACAACGAC [gtspaired] | -0.442
UUUUUUUUUUGAGACUGCGACAGUUUCCUA [tttttgagapaired] | 0.55
GUGGUGUGUGUUGGUGCCUAACACACAUCA [gtspaired] | -0.0369
GUGUGUGGUGUUGGUCUCUAACACCACACG [gtspaired] | -0.485
GUGUGUUGUGUUGGUUCCUAACACAGCGCA [gtspaired] | -0.799
UUUUUUUUUUGAGAGCGUAUCGCUCUCCGG [tttttgagapaired] | 0.348
GGUGGUUGUGUUGGUCUCUAACACAGCCGC [gtspaired] | -0.608
UUUUUUUUUUGAGAACGCAACGUUCUCCAG [tttttgagapaired] | 0.0927
GGUGUGUGUGUUGGUAUCUAACACACGCGC [gtspaired] | -0.53
UUUUUUUUUUGAGAUGGGGUCCAUCUUCUA [tttttgagapaired] | 0.365
UUUUUUUUUUGAGAGGGGCCCCCUCUCCUA [tttttgagapaired] | 1.19
UUUUUUUUUUGAGAUCGAGACGGUCUCCAG [tttttgagapaired] | 0.303
UUUUUUUUUUGAGACUGAGACAGUUUUCUA [tttttgagapaired] | 0.0917
UUUUUUUUUUGAGACUGCAACAGUCUCCUA [tttttgagapaired] | 0.491
UUUUUUUUUUGAGACGGACGCCGUCUCCUG [tttttgagapaired] | 0.53
UUUUUUUUUUGAGAGCGGGCCGUUCUCCUA [tttttgagapaired] | 0.401
UUUUUUUUUUGAGACUGACACAGUUUCCUG [tttttgagapaired] | 0.364
GUGGUGUGUGUUGGUGUCUAACACACGCCG [gtspaired] | -0.0868
GUUGUGUGUGUUGGCUUCUAACACACACAG [gtspaired] | -0.613
UUUUUUUUUUGAGAUCGAAGCGAUCUCCUG [tttttgagapaired] | 0.563
GUGGUUGGUGUUGGUUCCUAACACCGACCG [gtspaired] | -0.362
GUGUGUUGUGUUGGUGUCUAACACAGCGCG [gtspaired] | -0.647
GGUGUUGGUGUUGGCCCCUAACACCGACGC [gtspaired] | -0.228
UUUUUUUUUUGAGAUCGUCACGAUCUCCUG [tttttgagapaired] | 0.374
GUGUGGUGUGUUGGCCUCUAACACACUACG [gtspaired] | -0.587
UUUUUUUUUUGAGACCGCUCCGGUCUCCUG [tttttgagapaired] | 0.766

Sequence | binding signal (log2 fold change)
UUCUCUCCUCCUCCUGGGGAGGGGGGGAGA [ctspaired] | -0.422
GUGGUUGGUGUUGGCAUCUAACACCAAUCA [gtspaired] | -0.488
UUUUUUUUUUGAGAUCGGAUCGAUCUUCUG [tttttgagapaired] | -0.0139
UUUUUUUUUUGAGACCGAAUCGGUUUCCUG [tttttgagapaired] | 0.775
UUUUUUUUUUGAGAUGGCAACCAUCUUCUA [tttttgagapaired] | 0.155
UUCCUCUCUCCUCCAGGGGAGGGGGGAGGA [ctspaired] | -0.0721
UUUUUUUUUUGAGAGGGAGUCCCUCUCCUA [tttttgagapaired] | 0.579
UUUUUUUUUUGAGACGGUGACCGUCUCCGG [tttttgagapaired] | 0.489
UUUUUUUUUUGAGACUGAGGCAGUCUCCUG [tttttgagapaired] | 0.719
UUUUUUUUUUGAGAGGGUAACCCUCUCCUG [tttttgagapaired] | 0.179
UUUUUUUUUUGAGACCGAGGCGGUCUCCGG [tttttgagapaired] | 0.643
UUUUUUUUUUGAGACGGCCACCGUCUCCGG [tttttgagapaired] | 0.839
UUUUUUUUUUGAGAACGAUGCGUUCUUCUA [tttttgagapaired] | -0.042
UUUUUUUUUUGAGACCGAAUCGGUCUUCUG [tttttgagapaired] | 0.457
GUGUGUGGUGUUGGUCCCUAACACCACAUA [gtspaired] | -0.499
GUUGGUGGUGUUGGUUCCUAACACCGCCGA [gtspaired] | -0.284
GUUGUGUGUGUUGGACCCUAACACACACGA [gtspaired] | -0.154
UUUUUUUUUUGAGAUCGGGUCGAUCUCCUA [tttttgagapaired] | 0.108
UUUUUUUUUUGAGAGCGAUGCGUUCUCCUA [tttttgagapaired] | 0.393
GGUUGGUGUGUUGGUCUCUAACACAUCAGC [gtspaired] | -0.954
GGUUGUUGUGUUGGCGUCUAACACAGCAAC [gtspaired] | -0.872
UUUUUUUUUUGAGAGCGGAGCGCUCUCCGG [tttttgagapaired] | 0.142
UUUUUUUUUUGAGACGGGGUCCGUUUCCUA [tttttgagapaired] | 0.71
UUUUUUUUUUGAGACGGAUACCGUUUCCUA [tttttgagapaired] | 0.267
GGUGUGUGUGUUGGCUCCUAACACACGCGC [gtspaired] | -0.518
UUUUUUUUUUGAGAGGGCGACCCUCUCCUA [tttttgagapaired] | 0.337

Sequence | binding signal (log2 fold change)
UUUUUUUUUUGAGAUGGGGUCCGUCUCCUA [tttttgagapaired] | 0.856
GUGUGGUGUGUUGGAUCCUAACACAUCGCG [gtspaired] | -0.768
UUUUUUUUUUGAGACCGCUCCGGUCUCCAG [tttttgagapaired] | 0.855
UUUUUUUUUUGAGAACGGGACGUUCUCCGG [tttttgagapaired] | 0.263
GUGGUUGGUGUUGGUCUCUAACACCGACCG [gtspaired] | -1.2
GGUGGUUGUGUUGGCCCCUAACACAAUCGC [gtspaired] | -0.185
UUUUUUUUUUGAGACUGGAUCAGUUUUCUA [tttttgagapaired] | 0.0191
UUUUUUUUUUGAGAGGGGAGCCCUCUCCGG [tttttgagapaired] | 0.7
UUUUUUUUUUGAGAGGGGAGCCCUCUCCAG [tttttgagapaired] | 0.747
UUUUUUUUUUGAGAUGGGAUCCGUCUCCUG [tttttgagapaired] | 0.295
UUUUUUUUUUGAGAACGGCACGUUCUCCGG [tttttgagapaired] | 0.326
GUUGUGUGUGUUGGCCUCUAACACACGCGA [gtspaired] | -0.811
UUUUUUUUUUGAGAUGGCAGCCAUUUCCAG [tttttgagapaired] | 0.515
UUUUUUUUUUGAGAUGGUUUCCAUCUCCGG [tttttgagapaired] | 0.0461
UUUUUUUUUUGAGAUGGUGUCCAUCUCCGG [tttttgagapaired] | 0.466
UUUUUUUUUUGAGACUGGCACAGUUUCCAG [tttttgagapaired] | 0.461
GGUUGUUGUGUUGGACCCUAACACAGCAAC [gtspaired] | 0.038
UUUUUUUUUUGAGACUGGUUCAGUCUUCUA [tttttgagapaired] | -0.201
UUUUUUUUUUGAGACCGGGGCGGUCUUCUG [tttttgagapaired] | 0.747
UUUUUUUUUUGAGAUGGGGACCAUCUCCUG [tttttgagapaired] | 0.59
UUUUUUUUUUGAGACCGCGGCGGUCUUCUA [tttttgagapaired] | 0.702
UUCCUCUCUCCUCCAGAGGAGGGGGGAGGA [ctspaired] | -0.407
UUUUUUUUUUGAGACGGAAACUGUCUCCGG [tttttgagapaired] | 0.789
UUUUUUUUUUGAGACGGUAACCGUUUCCGG [tttttgagapaired] | 0.643
UUUUUUUUUUGAGAGGGGCCCCCUCUUCUA [tttttgagapaired] | 0.54
